Data reported in PubChem BioAssay AID1508624 (National Center for Advancing Translational Sciences (NCATS), 2021).
Hit rate of the full screen: of about 48,000 compounds, about 120 (0.25%) were called active. About 4% were inconclusive and are not listed. Calls come from the whole dose curve; as a rule, active = well fitted activation curve with a large enough effect; inconclusive = small, poorly fitted or top-dose-only effect, or another doubt; inactive = no such curve, though single readings can be large or run the other way. The list shows a part of the results.

Experiment: Primary qHTS for Identification of Small Molecule Activators of Huntingtin-Antisense Promoter Activity; note: nearly all actives have a fitted effect of over 55% in size
Conditions: HEK293 HTT-AS promoter firefly luciferase reporter, 24 h; series mostly up to 57.5 µM; activity change, positive = activation: at the top concentration
Outline: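 HEK293 cells carrying firefly luciferase reporters were seeded at 2,500 per well in Opti-MEM and cultured for 24 h. They were then treated with compounds at up to 57.5 uM final for 24 h at 37 degrees C before Dual-Glo luminescence readout.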

Activity change, positive = activation, inactive:
COc1cccc(NC(=O)c2oc3ccc(S(=O)(=O)N(C)C4CCCCC4)cc3c2C)c1 -34.7%
COC(=O)c1ccc(NC(=O)c2cnn(-c3ccc(Cl)cc3)c2C2CCN(C(=O)OC(C)(C)C)CC2)cc1 -27.2%
COc1ccccc1C(=O)Nc1cccc(OCc2cc(=O)n3ccccc3n2)c1 21.6%
Cc1cc(C)c(NC(=O)c2cc(C)nc3c2c(C)nn3-c2cccc(F)c2)c(C)c1 -9.8%
Cc1cc2oc(C(=O)N(Cc3ccc(Cl)cc3)Cc3ccco3)c(C)c2cc1Cl -19.1%
CCN(CC)C(=O)c1c(NC(=O)c2ccccc2F)sc2c1CCC(C(C)(C)C)C2 (stereo not given) -24.9%
CCc1ccc(-c2nn(-c3ccc(OC)cc3)c3c2cnc2ccc(OC)cc23)cc1 -12.2%
O=C(CSc1nccn1Cc1ccc2c(c1)OCO2)Nc1ccccc1F -11.3%
CCCn1c(=O)sc2cc(NC(=O)c3ccccc3Cl)ccc21 3.64%
COc1cc(NC(=O)CCn2nc(C)cc2C)cc(OC)c1OC -4.76%
CCC1CCCCN1CCCNC(=O)c1cn(C)c2ccc(S(=O)(=O)N(C)C3CCCCC3)cc2c1=O (stereo not given) -13.4%
COc1cccc(N2CCN(C(=O)c3cccn3-c3nnc(N4CCCCC4)s3)CC2)c1 -6.59%
O=C1CC(c2ccc(Cl)cc2)CC(=O)N1 -3.56%
Cc1cc(Nc2ccccc2C)c2cccc(C)c2n1 -19.2%
COCCCN1CCC(NC(=O)c2cc(Cl)c(N)c3c2OCC3)CC1 -0.803%
CCC(C)n1c(SCC(=O)Nc2ccccc2C(=O)OC)nc2ccsc2c1=O (stereo not given) -37.5%
O=C(NCc1c(-n2cccc2)sc2c1CCCC2)Nc1cccc(C(F)(F)F)c1 -23.8%
CCc1ccc(NC(=O)C2CCCN(S(=O)(=O)c3ccc4c(c3)oc(=O)n4C)C2)cc1 (stereo not given) -14.6%
COCCCNC(=O)CCCn1c(SCC(=O)c2ccc(Br)cc2)nc2c(sc3ccccc32)c1=O -8.27%
Cc1ccc(C(=O)NCC(c2ccc(Cl)cc2)N2CCCCC2)cc1 (stereo not given) -12.3%
CCOc1ccc(C(=O)N2CC(=O)Nc3ccc(C)cc3C2c2ccc(F)cc2)cc1OCC (stereo not given) -31.7%
Cc1ccc(Cl)c2sc(NC(=O)c3ccc(S(=O)(=O)N4CCCC4)cc3)nc12 -33.6%
COc1cccc(CNC(=O)c2cccc(N3CCCS3(=O)=O)c2)c1 -15.6%
CSc1cccc(-n2nnc(-c3nsc(NC(=O)c4cccs4)n3)c2C)c1 18.7%
CCOC(=O)c1ccccc1NC(=O)CSc1nc(=O)[nH]c2c1CCCC2 -8.37%
Cc1ccc(NC(=O)CN2C(=O)C(c3ccccc3)=NC23CCCCC3)cc1C -31.4%
CCc1ccc2occ(CC(=O)N(Cc3ccccc3)C3CCS(=O)(=O)C3)c2c1 (stereo not given) -18.2%
COc1ccc(-n2c(C)nc3c(cnn3-c3ccc(C)c(C)c3)c2=O)cc1Cl -8.6%
CCS(=O)(=O)N1CCCc2cc(C(=O)Nc3cc([N+](=O)[O-])ccc3C)ccc21 -53.5%
CCc1ccc(S(=O)(=O)c2nnn3c2nc(N(C)Cc2ccccc2)c2cc(Cl)ccc23)cc1 16.3%
COc1cccc(CNC(=O)Cn2c(=O)ccc3cc(S(=O)(=O)N4CCCC4)ccc32)c1 -11.2%
CCN(CC)CCCNC(=O)c1cn(CC)c2ccc(S(=O)(=O)N3CCC(C)CC3)cc2c1=O 3.38%
Cc1cc(=O)n(CC(=O)N2CCCCC2)c2c1c(C)nn2C 15.3%
COc1ccc(Nc2nc3c(S(=O)(=O)c4ccccc4)nnn3c3ccc(Cl)cc23)cc1 -37.7%
COc1cc(/C=C(/C#N)c2nc(-c3cc4ccccc4oc3=O)cs2)ccc1O 4.12%
Cc1cccc(NC(=O)CSc2nc3c([nH]c4ccccc43)c(=O)n2-c2cc(C)cc(C)c2)c1 -10.1%
Cc1c(Cl)cccc1NC(=O)Nc1c[nH]c(=O)[nH]c1=O -8.17%
COc1cc(OC)cc(C(=O)Nc2nc(-c3nnn(-c4ccc(C)cc4)c3C)ns2)c1 -55.9%
CCOC(=O)C1=C(CN2CCC(C)CC2)NC(=O)NC1c1ccc(OC(C)C)cc1 (stereo not given) -29.4%
Nc1ccc(S(=O)(=O)NCc2ccccc2)cc1 -12%
Cc1ccc(Cn2c(CO)cnc2SCc2ccc(F)cc2)cc1 -23.5%
O=C(Nc1ccc(Cl)cc1Cl)c1cc(S(=O)(=O)NCc2ccc3c(c2)OCO3)ccc1F -21.6%
Cc1nn(CCC(=O)Nc2ccc(Cl)cc2)c(C)c1S(=O)(=O)N1CCCCC1 -32.1%
COc1ccccc1Cn1cc(C(=O)c2ccccc2)c(=O)c2cc(OC)c(OC)cc21 -3.61%
CN(C)c1ccc(CNC(=O)C2CCN(c3nnc(-n4cccc4)s3)CC2)cc1 -44.7%
CCOc1ccc(C(=O)Nc2ccc(-c3cc4ccccc4oc3=O)cc2)cc1Br -59.7%
CN(C1CCCCC1)S(=O)(=O)c1ccc2c(c1)c(=O)c(C(=O)N1CCN(c3ccccc3)CC1)cn2C 10.1% [at 11.5 µM, percent change from vehicle, -100% = no light]
O=C(O)c1ccc(NC(=O)c2ccc(Cl)c(S(=O)(=O)N3CCCCCC3)c2)cc1 12%
O=S(=O)(NCCS(=O)(=O)N1CCN(c2ccccc2)CC1)c1ccccc1 -7.76%
COC(=O)c1ccc(NC(=O)C(C)Sc2nc(=O)cc(N)n2CCc2ccccc2)cc1 (stereo not given) -22.3%
Cc1nc2c3ccccc3nc(NNC(=O)CCC(=O)O)n2n1 0.716%
Cc1ccc(NC(=O)CN2C(=O)CCSc3ccccc32)c(C)c1 -16.8%
COc1ccc(CCNC(=O)c2ccc3c(c2)nc(C)n3-c2ccc(Br)cc2)cc1OC -24.3%
C=Cc1ccc(CN2C(=O)N(c3ccc(C)c(C)c3)S(=O)(=O)c3ccccc32)cc1 -25.6%
COc1ccccc1C(=O)Nc1nnc(SCc2cc(=O)c3ccccc3[nH]2)s1 -20.4%
CCOc1ccc(NC(=O)c2cc3cc4ccc(C)cc4nc3o2)cc1 -7.47%
Cc1ccc(-n2c(=O)c3ccc(C(=O)NCc4ccco4)cc3n(Cc3ccccc3Cl)c2=O)cc1 11.5%
Brc1cccc(-c2nnn3c2nc(NC2CCCCC2)c2ccccc23)c1 2.87%
Cc1nn(-c2ccc(N3CCOCC3)nn2)c(C)c1CCC(=O)NCc1ccc(Cl)cc1 -23%
CCS(=O)(=O)c1ncc(Cl)c(C(=O)Nc2ccc(S(=O)(=O)N(C)c3ccccc3)cc2)n1 -94.6%
